Our source for the survival values is PubChem BioAssay AID463173 (ICCB-Longwood Screening Facility, Harvard Medical School, 2010).

In all, about 52,000 compounds went through this assay and about 4,300 (8.3%) were called active. Cut-off read from the data, not from the text of the source: active = survival mostly below about 52% (no sharp cut-off); inactive = mostly above about 56%. The list shows a part of the results.

In this test the test system is DeltatarO mutant. The experiment in a line: growth inhibition of S. aureus wild type versus tarO mutant, primary screen, teichoic acid synthesis inhibitors, RN4220, OD600 (AID 463173). As to conditions: OD600, 18 h, hits give low values, screened at 18.75 µg/mL (by protocol).
For `COc1ccc(OCCn2c(NC(=O)c3ccc(OC)cc3)nc3ccccc32)cc1`, the survival was active: -2%.
The value for `CNC(=O)C1CCC(Cn2c(=O)c3sccc3n(CC(=O)N3CCCC(C)C3)c2=O)CC1` (centres undefined) was inactive: 93%.
The value for `COCCCNC(=O)C1CCN(Cc2cc3ccccc3n2Cc2cccc(C)c2)CC1` was inactive: 91%.
Regarding `COc1cc(-c2nc(SCC(=O)Nc3ccc4c(c3)OCO4)c(-c3ccccc3)[nH]2)cc(OC)c1OC`, the survival was inactive: 57%.
The value for `COc1ccc(-c2nnc(SCC(=O)N3CCC(C)CC3)o2)cc1` was inactive: 82%.
The value for `COc1ccc(-c2nnc(C3CCN(S(=O)(=O)c4cccc(Cl)c4)CC3)o2)cc1` was inactive: 79%.
Regarding `COc1ccccc1CNC(=O)CSc1ncc(S(=O)(=O)c2ccc(C)c(Cl)c2)c(=O)[nH]1`, the survival is inactive: 124%.
The value for `CCCOc1ccc(CNC(=O)C(NS(=O)(=O)c2cccs2)C(C)C)cc1` (centres undefined) was inactive: 77%; that for `COc1cc(Cl)c(C)cc1NC(=O)c1cnc(N2CCCCC2)c2ccccc12` was inactive: 115%; that for `Cn1nc(CC(=O)Nc2ccc(N3CCN(C(=O)OC(C)(C)C)CC3)cc2)c2ccccc2c1=O` was inactive: 84%.
The value for `COC(=O)C(CCSC)Nc1ncnc2onc(-c3ccc(F)cc3)c12` (centres undefined) was inactive: 52%; that for `CC(C)Cn1c(-c2cccc(Br)c2)nc2ccccc21` was active: 21%; that for `CCOC(=O)C1(C)C=C(Nc2cccc(C(=O)O)c2)C(=O)N1c1ccccc1` (centres undefined) was inactive: 73%.
For `Cc1ccc2c(=O)cc(C(=O)Nc3c(C)n(C)n(-c4ccccc4)c3=O)oc2c1`, the survival was active: 39%.
The value for `COc1cc(NC(=O)CSc2nc3nc(C)c(Cc4ccccc4Cl)c(C)n3n2)cc(OC)c1` was inactive: 73%; that for `COc1ccccc1N1CCN(C(=O)C2CCCN(S(=O)(=O)c3ccc4c(c3)CCCN4C(C)=O)C2)CC1` (centres undefined) was inactive: 88%.
In the case of `Cc1ccc(Nc2ncnc3sc4c(c23)CCC(C)C4)cc1C` (centres undefined), the survival was inactive: 58%.
`O=C(c1ccccc1)N1c2nc(-c3ccco3)nn2C2(CCCCC2)[C@@H]2CCCC[C@@H]21`: the survival is inactive: 62%.
Regarding `Cc1cc(C)cc(NC(=O)Cc2noc3ccccc23)c1`, the survival was active: 54%.
With `Cc1cc(C)c(S(=O)(=O)Nc2nnc(C(F)(F)F)s2)c(C)c1`, the survival is active: 36%.
The value for `Cc1cc(C)c(NC(=O)C2CCCN(S(=O)(=O)c3c(C)noc3C)C2)c(C)c1` (centres undefined) was inactive: 84%; that for `Cc1ccccc1OCc1ccc(-c2nc(C#N)c(N3CCN(c4cccc(Cl)c4)CC3)o2)o1` was inactive: 53%.
Consider `Cc1cc(C)cc(NC(=O)C(Cc2ccccc2)NS(=O)(=O)c2ccc3c(c2)CCC(=O)N3)c1` (centres undefined), for which the survival is inactive: 77%.
The value for `CC(C)NS(=O)(=O)c1ccc(CCC(=O)Nc2ccc3c(c2)OCCO3)cc1` was inactive: 83%.
